In the supplement of paper PMC4967469:

Assays:
Assay in all cases: Viability of human cancer cell lines after 72 h of drug (GDSC screen)
[1] = compound: CC(C)(C)OC(=O)Nc1ccc(-c2cc(C(=O)NCCCCCCC(=O)NO)no2)cc1 [CAY10603]; settings: top dose 20 µM; top dose inferred
Method: (§1)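 Human cancer cell lines in 384-well plates, medium with 10% serum, drug for 72 h over a 256-fold dose range (nine 2-fold or five 4-fold steps up to the top dose). Adherent lines were fixed and stained with the nucleic acid dye Syto60, suspension lines read with resazurin; signal relative to control wells, capped at 0 and 100%. One two-parameter sigmoid per drug and line, fitted in a mixed model over all curves with the slope shared within a line.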

[2] = compound: N#Cc1c(C2CCNCC2)cc(-c2c(O)cccc2OCC2CC2)nc1N [ACHP (KIN001-260)]; settings: top dose 20 µM; top dose inferred
Method: as §1

[3] = compound: CCc1cc2c(cc1N1CCC(N3CCOCC3)CC1)C(C)(C)c1[nH]c3cc(C#N)ccc3c1C2=O [CH5424802]; settings: top dose 5.12 µM; top dose inferred
Method: as §1

Cell Line | AUC [1] | IC50 [1] | AUC [2] | IC50 [2] | AUC [3] | IC50 [3]
CA46 (Burkitt lymphoma, suspension) | 0.104 | < 0.0781 µM | 0.815 | 12 µM | 0.917 | > 5.12 µM
CAKI-1 (kidney, adherent) | 0.574 | 2.21 µM | 0.95 | > 20 µM | 0.964 | > 5.12 µM
CAL-29 (bladder, adherent) | 0.579 | 2.09 µM | 0.981 | > 20 µM | 0.979 | > 5.12 µM
CAL-39 (cervix, adherent) | 0.756 | 7.08 µM | 0.976 | > 20 µM | 0.986 | > 5.12 µM
CAL-51 (breast, adherent) | 0.922 | > 20 µM | 0.991 | > 20 µM | 0.989 | > 5.12 µM
CAL-54 (kidney, adherent) | 0.604 | 2.52 µM | 0.95 | > 20 µM | 0.985 | > 5.12 µM
CAL-72 (osteosarcoma, adherent) | 0.949 | > 20 µM | 0.984 | > 20 µM | 0.984 | > 5.12 µM
CAL-85-1 (breast, adherent) | 0.712 | 5.98 µM | 0.92 | > 20 µM | 0.869 | > 5.12 µM
CAL-120 (breast, adherent) | 0.516 | 1.4 µM | 0.963 | > 20 µM | 0.979 | > 5.12 µM
CAL-148 (breast, suspension) | 0.492 | 1.19 µM | 0.984 | > 20 µM | 0.981 | > 5.12 µM
CAMA-1 (breast, adherent) | 0.546 | 1.73 µM | 0.968 | > 20 µM | 0.913 | > 5.12 µM
CCF-STTG1 (glioma, adherent) | 0.878 | > 20 µM | 0.985 | > 20 µM | 0.988 | > 5.12 µM
CCRF-CEM (lymphoblastic leukaemia, suspension) | 0.192 | 0.185 µM | 0.895 | 17.5 µM | 0.987 | > 5.12 µM
CESS (acute myeloid leukaemia, suspension) | 0.198 | 0.19 µM | 0.874 | 14.8 µM | 0.98 | > 5.12 µM
CFPAC-1 (pancreas, adherent) | 0.937 | > 20 µM | 0.977 | > 20 µM | 0.984 | > 5.12 µM
CHL-1 (melanoma, adherent) | 0.357 | 0.514 µM | 0.969 | > 20 µM | 0.986 | > 5.12 µM
CHP-126 (neuroblastoma, suspension) | 0.497 | 1.22 µM | 0.941 | > 20 µM | 0.977 | > 5.12 µM
CHP-134 (neuroblastoma, suspension) | 0.367 | 0.486 µM | 0.895 | > 20 µM | 0.969 | > 5.12 µM
CMK (acute myeloid leukaemia, suspension) | 0.164 | 0.149 µM | 0.799 | 7.97 µM | 0.943 | > 5.12 µM
COLO-205 (large intestine, suspension) | 0.534 | 1.54 µM | 0.974 | > 20 µM | 0.984 | > 5.12 µM
COLO-320-HSR (large intestine, suspension) | 0.515 | 1.36 µM | 0.926 | > 20 µM | 0.991 | > 5.12 µM

Cell Line | AUC [1] | IC50 [1] | AUC [2] | IC50 [2] | AUC [3] | IC50 [3]
COLO-678 (large intestine, semi-adherent) | 0.875 | > 20 µM | 0.98 | > 20 µM | 0.978 | > 5.12 µM
COLO-679 (melanoma, adherent) | 0.778 | 9.08 µM | 0.985 | > 20 µM | 0.984 | > 5.12 µM
COLO-680N (oesophagus, adherent) | 0.983 | > 20 µM | 0.986 | > 20 µM | 0.923 | > 5.12 µM
COLO-792 (melanoma, adherent) | 0.875 | 19.1 µM | 0.987 | > 20 µM | 0.981 | > 5.12 µM
COR-L311 (small cell lung carcinoma, suspension) | – | – | 0.984 | > 20 µM | 0.94 | > 5.12 µM
Caov-4 (ovary, adherent) | – | – | 0.917 | > 20 µM | 0.961 | > 5.12 µM
HeLa (cervix, adherent) | – | – | 0.986 | > 20 µM | – | –
K-562 (chronic myeloid leukaemia, suspension) | 0.406 | 0.698 µM | 0.933 | > 20 µM | – | –
KARPAS-231 (B-cell leukaemia, suspension) | – | – | – | – | 0.99 | > 5.12 µM
KARPAS-299 (anaplastic large cell lymphoma, suspension) | 0.368 | 0.579 µM | 0.852 | 11.6 µM | – | –
KASUMI-1 (acute myeloid leukaemia, suspension) | – | – | – | – | 0.885 | > 5.12 µM
LN-18 (glioma, adherent) | 0.72 | 4.54 µM | 0.994 | > 20 µM | – | –
LN-229 (glioma, adherent) | 0.681 | 4.01 µM | 0.987 | > 20 µM | – | –
MV-4-11 (leukaemia, suspension) | – | – | 0.81 | 8.3 µM | – | –
NCI-H1963 (small cell lung carcinoma, suspension) | 0.81 | 8.93 µM | 0.957 | > 20 µM | – | –
NCI-H2171 (small cell lung carcinoma, suspension) | – | – | 0.988 | > 20 µM | 0.99 | > 5.12 µM
NCI-H2228 (lung adenocarcinoma, adherent) | 0.758 | 10.5 µM | 0.938 | > 20 µM | – | –
NCI-H3122 (lung adenocarcinoma, adherent) | 0.472 | 1.05 µM | 0.929 | > 20 µM | – | –
SK-N-FI (neuroblastoma, adherent) | 0.629 | 2.84 µM | 0.988 | > 20 µM | – | –
TE-441-T (rhabdomyosarcoma, adherent) | – | – | 0.977 | > 20 µM | 0.987 | > 5.12 µM
THP-1 (acute myeloid leukaemia, suspension) | 0.324 | 0.427 µM | 0.907 | > 20 µM | – | –

IC50 is the fitted dose that halves viability relative to control wells, and lower means more sensitive; a fit beyond the top or the lowest dose is shown as a bound at that dose. AUC, from the same fit, is the share of area under the viability curve across the 256-fold dose range; values near 1 show little effect. Where the top dose is marked as inferred, it was derived from the fitted curves, not read from the paper.
